The text below walks through data of the BET-seq Pho4 binding data (Le et al. 2018).

The other results are listed elsewhere or left out. The energies were worked out here from pooled read counts, against the library average; single values are noisy.

This test addresses T1, Pho4 (S. cerevisiae) (UniProt P07270).
T1 sequence: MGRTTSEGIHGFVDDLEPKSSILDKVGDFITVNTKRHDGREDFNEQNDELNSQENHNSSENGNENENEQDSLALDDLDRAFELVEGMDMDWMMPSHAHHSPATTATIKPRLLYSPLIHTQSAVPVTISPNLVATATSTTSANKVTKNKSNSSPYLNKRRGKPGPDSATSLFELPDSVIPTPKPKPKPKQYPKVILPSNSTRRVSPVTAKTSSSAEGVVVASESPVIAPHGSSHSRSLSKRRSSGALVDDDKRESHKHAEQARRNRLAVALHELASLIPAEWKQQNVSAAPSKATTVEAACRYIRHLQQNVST
In words: relative binding free energy (BET-seq); higher = weaker binding. The settings on record: reference: library average.
Turning to GGGGTCACGTGTTCAG, the “relative binding free energy” value worked out at 0.24 kcal/mol.

With ACGTTCACGTGGGATT, the “relative binding free energy” value was found to be 0.22 kcal/mol.

As to TAAATCACGTGTTTTG, the “relative binding free energy” value was found to be 0.16 kcal/mol.

As for GGTGGCACGTGTGCTC, the “relative binding free energy” value was 0.07 kcal/mol.

Turning to TGAGTCACGTGTTCCG, the “relative binding free energy” value was 0.19 kcal/mol.

TGTGCCACGTGGAGCG: the “relative binding free energy” value is -0.19 kcal/mol.

Consider GTTGACACGTGTCGAG, for which the “relative binding free energy” value came out at 0.14 kcal/mol.

As to TGGCACACGTGTTGGC, the “relative binding free energy” value was determined as 0.17 kcal/mol.

In the case of AATTTCACGTGAGGCA, the “relative binding free energy” value stood at 0.41 kcal/mol.

On to TTCTGCACGTGGACGT, for which the “relative binding free energy” value came out at 0.09 kcal/mol.

Regarding TTGTTCACGTGTGACA, the “relative binding free energy” value amounted to 0.22 kcal/mol.

AGTAGCACGTGCTTGG: the “relative binding free energy” value is -0.06 kcal/mol.

Turning to ATTATCACGTGGGTTC, the “relative binding free energy” value was -0.01 kcal/mol.

Turning to AGAATCACGTGGGATT, the “relative binding free energy” value stood at 0.04 kcal/mol.

Turning to GTAAACACGTGGCTTT, the “relative binding free energy” value came to 0.2 kcal/mol.

For AGCGTCACGTGTGTGA, the “relative binding free energy” value was -0.03 kcal/mol.

For GGGGGCACGTGTCATG, the “relative binding free energy” value is -0.16 kcal/mol.

For TTGGGCACGTGATTCG, the “relative binding free energy” value came out at 0.06 kcal/mol.

As for TGGTGCACGTGCGCTT, the “relative binding free energy” value was -0.21 kcal/mol.

Regarding TGCGACACGTGCGGGG, the “relative binding free energy” value was -0.22 kcal/mol.

Consider CGGTGCACGTGTTGGA, for which the “relative binding free energy” value was -0.05 kcal/mol.

In the case of TAGATCACGTGTGATA, the “relative binding free energy” value came to 0.23 kcal/mol.

In the case of ATCTGCACGTGTGGTG, the “relative binding free energy” value is -0.06 kcal/mol.

As for GGTTGCACGTGGTTAA, the “relative binding free energy” value was -0.02 kcal/mol.

For the sequence GTGTGCACGTGGCAGC, the “relative binding free energy” value was -0.06 kcal/mol.

On to TGGGTCACGTGAGAGA, for which the “relative binding free energy” value turned out to be 0.36 kcal/mol.

Regarding TGGCACACGTGTGAGT, the “relative binding free energy” value is 0.12 kcal/mol.

Take GCTTTCACGTGATTTG: the “relative binding free energy” value amounted to 0.36 kcal/mol.

With AAGTTCACGTGTAAAT, the “relative binding free energy” value was found to be 0.5 kcal/mol.

AAGTACACGTGTTGGC: the “relative binding free energy” value was found to be 0.03 kcal/mol.

As to GCGGTCACGTGTCGTG, the “relative binding free energy” value came out at 0.1 kcal/mol.

With CGTGGCACGTGGTACG, the “relative binding free energy” value was -0.27 kcal/mol.

For GATTTCACGTGTTGGG, the “relative binding free energy” value was determined as 0.39 kcal/mol.

On to CTTTGCACGTGCGGAG, for which the “relative binding free energy” value is -0.04 kcal/mol.

Consider ATAGTCACGTGGCATT, for which the “relative binding free energy” value is -0.03 kcal/mol.

Regarding AAGTGCACGTGGTAGA, the “relative binding free energy” value was -0.07 kcal/mol.

Regarding TTGGACACGTGGTGGC, the “relative binding free energy” value stood at 0.1 kcal/mol.

With ATTTGCACGTGGGTGT, the “relative binding free energy” value was -0.13 kcal/mol.

Consider TAGGACACGTGCGGTG, for which the “relative binding free energy” value is -0.03 kcal/mol.

In the case of AGGTGCACGTGTCTTT, the “relative binding free energy” value is -0.18 kcal/mol.

Consider AAGGGCACGTGAGCGC, for which the “relative binding free energy” value came out at 0.13 kcal/mol.

Regarding GAAATCACGTGGGAGT, the “relative binding free energy” value worked out at 0.13 kcal/mol.

Turning to TTTCTCACGTGGGGTG, the “relative binding free energy” value amounted to 0.04 kcal/mol.

As to TAGGTCACGTGAAGAG, the “relative binding free energy” value was found to be 0.23 kcal/mol.

For TCATTCACGTGTAGAG, the “relative binding free energy” value came out at 0.34 kcal/mol.

As for TAAGTCACGTGTCTTG, the “relative binding free energy” value worked out at 0.08 kcal/mol.

Regarding AGGATCACGTGCAGGG, the “relative binding free energy” value is 0.07 kcal/mol.

ATGTTCACGTGTGTTC: the “relative binding free energy” value turned out to be 0.15 kcal/mol.

As for TTGGACACGTGCGGGA, the “relative binding free energy” value turned out to be 0.08 kcal/mol.

For the sequence CTTGACACGTGGGTAG, the “relative binding free energy” value was -0.14 kcal/mol.

As to TATAGCACGTGCGTTT, the “relative binding free energy” value was -0.11 kcal/mol.

Regarding CAAGTCACGTGAGTTG, the “relative binding free energy” value was determined as 0.29 kcal/mol.

On to GAAGACACGTGCTGGT, for which the “relative binding free energy” value is 0.16 kcal/mol.

With GAAGGCACGTGTGTAA, the “relative binding free energy” value was -0.06 kcal/mol.

Turning to GCGAGCACGTGTGTAT, the “relative binding free energy” value was 0.01 kcal/mol.

TGTTTCACGTGAAGGA: the “relative binding free energy” value turned out to be 0.44 kcal/mol.

With TCTATCACGTGTGAAT, the “relative binding free energy” value stood at 0.26 kcal/mol.

As to GCTGACACGTGAGGGT, the “relative binding free energy” value was 0.13 kcal/mol.

Take ATGCTCACGTGTTGGT: the “relative binding free energy” value was 0.05 kcal/mol.

In the case of GTATGCACGTGCGCGT, the “relative binding free energy” value was -0.24 kcal/mol.

For TGGGACACGTGTTTTT, the “relative binding free energy” value was found to be 0.17 kcal/mol.

On to TTTTTCACGTGGATGA, for which the “relative binding free energy” value came out at 0.29 kcal/mol.

As to AGTTACACGTGCGGTC, the “relative binding free energy” value worked out at 0.1 kcal/mol.

Take TATGCCACGTGGTAGT: the “relative binding free energy” value was -0.08 kcal/mol.

As for GTGACCACGTGTGAGT, the “relative binding free energy” value was determined as 0.15 kcal/mol.

Take CGAAGCACGTGAGGGA: the “relative binding free energy” value came to 0.19 kcal/mol.

Consider TTCTTCACGTGCGTGT, for which the “relative binding free energy” value worked out at 0.28 kcal/mol.

For CATTGCACGTGGTTGG, the “relative binding free energy” value is -0.08 kcal/mol.

Take GTCTGCACGTGGTGTT: the “relative binding free energy” value is -0.08 kcal/mol.

For GGTGACACGTGCATTT, the “relative binding free energy” value came to 0.03 kcal/mol.

As for ATAGACACGTGGTGTT, the “relative binding free energy” value was -0.08 kcal/mol.

With ATGTGCACGTGTGTAA, the “relative binding free energy” value came to 0 kcal/mol.

GTGAACACGTGATTGT: the “relative binding free energy” value came to 0.05 kcal/mol.

For GAGAACACGTGGGCGG, the “relative binding free energy” value was -0.07 kcal/mol.

As for TGCGGCACGTGCCTGG, the “relative binding free energy” value was -0.09 kcal/mol.

On to AGCCGCACGTGTTGGG, for which the “relative binding free energy” value was -0.04 kcal/mol.

As to AGGTTCACGTGTATCG, the “relative binding free energy” value stood at 0.15 kcal/mol.

As to TAGTCCACGTGAGGTG, the “relative binding free energy” value amounted to 0.28 kcal/mol.

On to ATGGTCACGTGGTTTC, for which the “relative binding free energy” value was determined as 0.1 kcal/mol.

Turning to TTAGTCACGTGGCAAA, the “relative binding free energy” value amounted to 0.12 kcal/mol.

With TTAATCACGTGAGTTC, the “relative binding free energy” value was determined as 0.23 kcal/mol.

Regarding TGACGCACGTGGGTTA, the “relative binding free energy” value was -0.18 kcal/mol.

With TTTTTCACGTGAGTAC, the “relative binding free energy” value worked out at 0.34 kcal/mol.

Turning to GAGGTCACGTGGGAAC, the “relative binding free energy” value stood at 0.23 kcal/mol.

For GGTAACACGTGTGAGT, the “relative binding free energy” value amounted to 0.1 kcal/mol.

Regarding TTGAACACGTGTTTAG, the “relative binding free energy” value was -0.02 kcal/mol.

With AGTAGCACGTGAAACG, the “relative binding free energy” value came to 0.36 kcal/mol.

In the case of AGGGGCACGTGTGGCA, the “relative binding free energy” value was -0.02 kcal/mol.

With TGGCGCACGTGGGAGC, the “relative binding free energy” value was -0.24 kcal/mol.

As to GCGATCACGTGTGTTT, the “relative binding free energy” value stood at 0.26 kcal/mol.

As to GTTTTCACGTGAAGAG, the “relative binding free energy” value came to 0.33 kcal/mol.

Regarding GAAGTCACGTGGGTTA, the “relative binding free energy” value stood at 0.03 kcal/mol.

Turning to CAGGGCACGTGGTTAT, the “relative binding free energy” value was -0.15 kcal/mol.

Take GATTGCACGTGGTAAG: the “relative binding free energy” value is 0.06 kcal/mol.

As to TTTCGCACGTGTGGGG, the “relative binding free energy” value was 0.04 kcal/mol.

Consider AAGGGCACGTGAGGAG, for which the “relative binding free energy” value worked out at 0.09 kcal/mol.

As to ATAAACACGTGTGTAG, the “relative binding free energy” value is -0.02 kcal/mol.

Regarding AGAGACACGTGGGATA, the “relative binding free energy” value was -0.12 kcal/mol.

As to CAGCGCACGTGGGTGA, the “relative binding free energy” value was -0.09 kcal/mol.

TTGAGCACGTGGCATG: the “relative binding free energy” value is -0.14 kcal/mol.

Take TTAGACACGTGCTTTG: the “relative binding free energy” value is -0.08 kcal/mol.

As for GGGTTCACGTGCTATT, the “relative binding free energy” value was determined as 0.28 kcal/mol.

TCTGTCACGTGGGTGT: the “relative binding free energy” value was -0.09 kcal/mol.

TGCTGCACGTGGTGTC: the “relative binding free energy” value is -0.05 kcal/mol.

AGAGACACGTGCGTGG: the “relative binding free energy” value was -0.02 kcal/mol.

On to AGGCGCACGTGTTGGA, for which the “relative binding free energy” value is -0.06 kcal/mol.

For the sequence ATGAGCACGTGGGGCT, the “relative binding free energy” value was -0.33 kcal/mol.

Consider AATTGCACGTGTGTGA, for which the “relative binding free energy” value was 0.06 kcal/mol.

Take TAATTCACGTGTATTC: the “relative binding free energy” value turned out to be 0.36 kcal/mol.

AGGAGCACGTGGGTTC: the “relative binding free energy” value is -0.15 kcal/mol.

In the case of AGGTGCACGTGGGCTG, the “relative binding free energy” value is -0.2 kcal/mol.

Turning to GTTGGCACGTGTGAGC, the “relative binding free energy” value worked out at 0.08 kcal/mol.

Consider GGGGTCACGTGGATGA, for which the “relative binding free energy” value came to 0.18 kcal/mol.

Consider CGGAGCACGTGGTGCT, for which the “relative binding free energy” value is -0.06 kcal/mol.

Turning to TGAAGCACGTGTTTTT, the “relative binding free energy” value was found to be 0.03 kcal/mol.
